# Legend:
# [1] = target: 3-oxo-isoapionate 4-phosphate transcarboxylase/hydrolase (RLP, A7IJG7) (Xanthobacter versatilis, UniProt A7IJG7); assay: 1H NMR, coupled; conditions: 50 mM Tris pD 8.5; 2 mM MgCl2; 25 °C
# [2] = target: D-apiose isomerase (Q6D5T7) (Pectobacterium atrosepticum, UniProt Q6D5T7); assay: 1H NMR, coupled with D-apulose kinase; assay type: biochemical; conditions: 20 mM D-apiose; 2 mM MgCl2; 50 mM sodium phosphate pH 8.0; 25 °C
# UniProt Q6D5T7, sequence (Q6D5T7 whole entry): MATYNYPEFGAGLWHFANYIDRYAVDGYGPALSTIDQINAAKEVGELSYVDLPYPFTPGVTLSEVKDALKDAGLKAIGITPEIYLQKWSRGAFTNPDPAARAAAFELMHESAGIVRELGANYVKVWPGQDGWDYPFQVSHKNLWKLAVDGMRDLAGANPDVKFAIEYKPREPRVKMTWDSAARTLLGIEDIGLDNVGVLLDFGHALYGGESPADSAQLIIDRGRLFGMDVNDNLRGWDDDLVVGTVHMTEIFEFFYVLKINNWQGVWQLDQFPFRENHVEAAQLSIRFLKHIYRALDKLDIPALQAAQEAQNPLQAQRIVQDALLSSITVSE
# UniProt A7IJG7, sequence (A7IJG7 whole entry): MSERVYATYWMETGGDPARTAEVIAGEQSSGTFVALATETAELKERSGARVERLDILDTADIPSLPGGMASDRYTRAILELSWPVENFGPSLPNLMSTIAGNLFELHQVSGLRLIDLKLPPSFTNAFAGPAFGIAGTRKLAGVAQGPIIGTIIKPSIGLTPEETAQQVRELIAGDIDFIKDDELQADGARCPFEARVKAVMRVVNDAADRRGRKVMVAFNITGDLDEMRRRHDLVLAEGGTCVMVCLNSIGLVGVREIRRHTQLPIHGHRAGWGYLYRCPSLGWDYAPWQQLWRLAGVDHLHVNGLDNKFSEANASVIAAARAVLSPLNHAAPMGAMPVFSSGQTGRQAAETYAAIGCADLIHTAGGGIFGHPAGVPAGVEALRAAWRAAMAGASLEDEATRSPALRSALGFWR
Compound,"1H NMR, coupled; substrate made in situ with B9JK75 and B1G889 [1]","1H NMR, coupled with D-apulose kinase [2]"
O=C(O)C(O)(CO)C(=O)COP(=O)(O)O (centres unmarked) [3-oxo-isoapionate 4-phosphate],The RLP converted 3-oxo-isoapionate 4-phosphate to 3-phosphoglycerate (3-PGA) and glycolate,–
O=C[C@H](O)C(O)(CO)CO [D-apiose],–,catalyzes isomerization of D-apiose to D-apulose

# From publication PMC6435334 (Nature chemical biology, 2018)
